# Results taken from publication PMC4336329 (PLoS ONE, 2015).
# The campaign covered roughly 310,000 compounds. About 2,200 (0.71%) showed an effect of 50% or more. The effect is printed as a negative number. The list shows a part of the results.
# Biological target: human ether-à-go-go-related gene (hERG) potassium channel (human, UniProt Q12809)
# Test: primary screen, population patch clamp on CHO cells stably expressing hERG
# Sequence of human ether-à-go-go-related gene (hERG) potassium channel (Q12809 whole entry, looked up): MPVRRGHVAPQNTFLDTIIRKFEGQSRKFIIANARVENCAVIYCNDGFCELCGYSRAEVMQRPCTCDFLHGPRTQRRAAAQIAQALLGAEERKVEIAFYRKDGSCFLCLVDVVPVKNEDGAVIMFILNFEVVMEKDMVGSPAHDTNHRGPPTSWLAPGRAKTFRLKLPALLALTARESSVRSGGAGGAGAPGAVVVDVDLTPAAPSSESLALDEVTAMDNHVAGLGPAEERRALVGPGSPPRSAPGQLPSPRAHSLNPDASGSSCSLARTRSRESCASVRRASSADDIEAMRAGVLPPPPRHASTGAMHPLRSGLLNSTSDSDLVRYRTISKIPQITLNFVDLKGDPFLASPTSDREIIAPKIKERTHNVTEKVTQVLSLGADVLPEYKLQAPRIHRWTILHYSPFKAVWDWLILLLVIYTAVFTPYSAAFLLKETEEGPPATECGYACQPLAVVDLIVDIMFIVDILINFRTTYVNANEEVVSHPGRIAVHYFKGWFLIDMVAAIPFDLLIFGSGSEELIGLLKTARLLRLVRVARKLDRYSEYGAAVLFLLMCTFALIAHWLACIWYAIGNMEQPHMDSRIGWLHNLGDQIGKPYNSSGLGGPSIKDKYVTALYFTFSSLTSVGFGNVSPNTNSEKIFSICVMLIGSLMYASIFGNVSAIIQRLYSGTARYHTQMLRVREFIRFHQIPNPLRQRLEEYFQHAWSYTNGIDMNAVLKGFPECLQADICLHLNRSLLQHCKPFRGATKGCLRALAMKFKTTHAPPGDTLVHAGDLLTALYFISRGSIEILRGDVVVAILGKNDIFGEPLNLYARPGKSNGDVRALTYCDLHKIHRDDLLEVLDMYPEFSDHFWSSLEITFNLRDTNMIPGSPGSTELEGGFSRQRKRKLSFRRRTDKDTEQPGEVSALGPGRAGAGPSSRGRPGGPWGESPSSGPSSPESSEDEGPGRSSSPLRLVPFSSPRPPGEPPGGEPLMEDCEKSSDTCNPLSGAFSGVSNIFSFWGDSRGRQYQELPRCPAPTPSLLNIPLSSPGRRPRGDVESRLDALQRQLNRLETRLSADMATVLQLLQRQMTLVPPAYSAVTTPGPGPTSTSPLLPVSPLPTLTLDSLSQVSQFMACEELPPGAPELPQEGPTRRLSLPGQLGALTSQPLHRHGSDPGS
row,SMILES,"hERG current change (%, negative = inhibition) at 1uM [%]"
1,CC(=O)N1CCN(C(=O)C2(NC(=O)Nc3ccc(C)cc3)CCCCC2)CC1,16.3
2,COc1cc(C(=O)O[C@H]2C/C(C)=C/CC[C@]3(C)O[C@@H]3C(O)C2C(C)C)cc(OC)c1OC (some centres unmarked),12.4
3,COC(=O)[C@@H](Cc1c[nH]c2ccccc12)NC(=O)CCC(=O)c1ccc(F)cc1,15.7
4,CCOc1ccc(C(C)NC(=O)c2cc(=O)[nH]c3ccccc23)cc1OCC (centres unmarked),17.2
5,CCc1noc(C)c1C(=O)Nc1nc(-c2cc(C)ccc2C)c(C)s1,7.7
6,COc1cccc(CN2CCNC(=O)C2CC(=O)NCCn2nc(C)cc2C)c1OC (centres unmarked),14.2
7,Nc1ccc2nc(CCCCc3nc4ccccc4[nH]3)[nH]c2c1,9.89
8,COc1cccc(CNc2nc3nc(C)cc(=O)n3[nH]2)c1,-7.15
9,c1ccc(NC2=NCCCCS2)cc1,-9.85
10,C=CCn1c(SCC(=O)Nc2cc(C)on2)nc2c([nH]c3ccccc32)c1=O,6.04
11,COc1ccc(S(=O)(=O)N(C)C)cc1NC(=O)CSc1nncs1,14
12,O=C(NN1CC(C(=O)OCc2ccc(Cl)cc2Cl)CC1=O)c1ccccc1 (centres unmarked),12.6
13,CN(C)CCN1CC(O)=C(c2nc3ccccc3s2)C1=N,12.8
14,COc1ccc(NC(=O)C(=O)NCCO)cc1Cl,9.5
15,CCOc1ccc(NC(=O)CN(C)C(=O)CCCn2c(=O)oc3ccccc32)cc1OCC,-0.61
16,CN1CCN(c2ccccc2NC(=O)c2cccc([N+](=O)[O-])c2)CC1,-67.1
17,COc1ccc(CCN(C)C(=O)c2cc(-c3ccc(C)cc3)nc3ccccc23)cc1OC,9.42
18,CS(=O)(=O)CCC(C(=O)OCC(=O)c1ccc(Cl)cc1)N1C(=O)c2ccccc2C1=O (centres unmarked),1.6
19,O=C(/C=C\c1ccco1)c1ccc(NC(=O)c2ccco2)cc1,14.4
20,O=C(O)C1CCCN(S(=O)(=O)c2ccccc2)C1 (centres unmarked),19.3
21,Cc1nc2ccccc2nc(C)c1=NOCc1cccc(F)c1,11.5
22,CN(CCC#N)C(=O)COC(=O)c1cccnc1Nc1ccccc1F,0.35
23,Cc1ccc(C(=O)OCC(=O)Nc2sc3c(c2C#N)CCCC3)cc1NC(=O)c1ccco1,5.49

row,SMILES,"hERG current change (%, negative = inhibition) at 1uM [%]"
1,CC(=O)CC[C@@H](C)O[C@@H]1OC(C)[C@H](O)CC1O (some centres unmarked),15.7
2,CC(C)CNC(=O)NC1C(NC(=O)NCC(C)C)N(C)C(=O)N1C (centres unmarked),6.41
3,Cc1cc(-n2c(C)cc(C(=O)CN3C(=O)NC4(CCCCC4)C3=O)c2C)no1,-14.5
4,CCOC(=O)c1ccccc1NC(=O)COc1ccccc1,13.4
5,CC(C)c1nnc(NC(=O)C2CCCN2S(=O)(=O)c2ccc(Cl)cc2)s1 (centres unmarked),10.7
6,COc1cc(N=c2c([N+](=O)[O-])nn(-c3ccc4c(c3)OCCO4)n2O)cc(OC)c1,10.4
7,COc1ccc(OC)c(NC(=O)C2C3CC4OC(=O)C2C4C3)c1 (centres unmarked),8.97
8,Cc1ccc(O)c(C)c1,14.1
9,CCOC(=O)COn1c(-n2nc(C)cc2C)nc2ccccc2c1=O,3.53
10,Cc1nnc(SCC(=O)N2CCCc3ccccc32)[nH]c1=O,5.54
11,O=[N+]([O-])c1ccc(C(O)CN2CCOCC2)cc1 (centres unmarked),18.6
12,CCn1c(COc2cccc(C)c2)nnc1SCC(=O)N1CCCC1,-8.35
13,CCCCC(C(=O)N/N=C/c1ccccn1)C(=O)N/N=C/c1ccccn1,5.34
14,C#CCNC(=O)C1=C[C@@H](C(C)(C)C)C[C@@H](OCc2ccc(CO)cc2)O1,13.5
15,O=C(CN1CCCC1)Nc1ccc(Br)cc1[N+](=O)[O-],16.3
16,COc1ccccc1OCCCn1cc(C#N)c2ccccc21,1.66
17,CCOC(=O)c1c(CSc2ccc(C)cc2)oc2ccc(O)cc12,6.7
18,Cc1ccc(S(=O)(=O)NCC(C)n2cncn2)cc1 (centres unmarked),2.12
19,COc1ccc(C(CNC(=S)NCc2ccccc2)N2CCCC2)cc1 (centres unmarked),4.14
20,O=c1[nH]c(=O)n(C2CCCCCC2)c(O)c1C=NCc1cccnc1,11.8
21,NNC(=O)c1cc2ccccc2cc1NS(=O)(=O)c1ccccc1,12.1
22,Cc1noc(NS(=O)(=O)c2ccc(NC(=O)Cc3ccc([N+](=O)[O-])cc3)cc2)c1C,15.2
23,COc1ccc(-c2ccc(C#N)c(SCC(=O)OCc3ccccc3)n2)cc1OC,3.84

row,SMILES,"hERG current change (%, negative = inhibition) at 1uM [%]"
1,COc1ccc(N2CC(C)Cn3c2nc2c3c(=O)n(Cc3ccccc3)c(=O)n2C)c(OC)c1 (centres unmarked),6.21
2,Cc1nc2ccc(NC(=O)c3ccco3)cc2nc1C,9.94
3,Cc1ccc(Cn2cnc3ccccc32)cc1,13
4,CCC(NC(=O)C1CCCC1)c1ccccc1 (centres unmarked),15.4
5,O=C(Cn1nc(-c2ccccc2)oc1=O)OCC(=O)c1ccc(F)c(F)c1,12.5
6,O=C(Nc1nnc(S(=O)(=O)N2CCN(c3ccc(F)cc3)CC2)s1)c1ccco1,12.2
7,Cc1ccc(-c2ccc(S(=O)(=O)N3CCCC3)cc2)cc1,8.65
8,COC(=O)c1ccc(Oc2nc(NC(C)(C)C)nc(N3CCOCC3)n2)cc1,-11.1
9,CC(Oc1ccc(Cl)cc1Cl)C(=O)Nc1ccncc1 (centres unmarked),6.32
10,CCOC(=O)C1CCN(C(=O)c2cc3c(-c4ccc(OC)c(OC)c4)nn(C)c3s2)CC1,6.92
11,Oc1cccc(-c2nc3ccccc3s2)c1,1.25
12,COC(=O)c1sccc1N/N=C/c1cccc(Oc2ccccc2)c1,5.22
13,O=C(NCCN1CCOCC1)c1ccc([N+](=O)[O-])cc1[N+](=O)[O-],6.46
14,Cc1cc(Nc2cccc(Br)c2)c2ccccc2n1,-33
15,Clc1ccc(-c2cn(-c3ccc(Cl)cc3)c3[n+]2CCCCC3)cc1.[Br-],-7.83
16,O=C(c1ccccc1)n1c(=O)cc[nH]c1=O,8.36
17,O=C1NCCCC1C(=O)N/N=C/c1ccccc1O (centres unmarked),7.09
18,COc1ccc(Cl)cc1NC(=O)CSc1nnc(COc2ccccc2)n1N,9.93
19,CCCCN1C(=S)NC[C@@H]1Cc1cccc2ccccc12,10.2
20,N#CC1=C(N)Oc2nc(-c3ccccc3)[nH]c2C1c1cccnc1 (centres unmarked),10.6
21,O=C(c1ccc(Cl)cc1[N+](=O)[O-])N1CCc2ccccc2C1,14.1
22,CN(C1CCCCC1)C(CNS(=O)(=O)c1ccc(Cl)cc1)c1ccccc1 (centres unmarked),8.84
23,CC1(c2ccc3c(c2)OCO3)NC(=O)N(CC(=O)Nc2ccc(N3CCOCC3)cc2)C1=O (centres unmarked),5.38

row,SMILES,"hERG current change (%, negative = inhibition) at 1uM [%]"
1,Cc1ccccc1-c1oc(C)c(C)[n+]1[O-].Cl,2.03
2,COc1ccc(/C=N/Nc2nc(-c3cccc(S(=O)(=O)N4CCCC4)c3)cs2)c(OC)c1,-0.714
3,O=C(Nc1cccc(C(=O)O)c1)/C(=C\c1ccc2c(c1)OCO2)NC(=O)c1ccco1,15.1
4,Oc1csc(Cc2nc(-c3ccccc3F)cs2)n1,6.96
5,CCSc1nnc(-c2ccccc2NC(C)=O)c(=O)[nH]1,-2.84
6,Cc1ccc(CNC(=O)c2cccc(S(C)(=O)=O)c2)cc1,9.64
7,CCOc1ccc(N(C(=O)c2cc3ccccc3oc2=O)C2C=CS(=O)(=O)C2)cc1 (centres unmarked),3.47
8,CCCCNC(=O)c1onc(CSc2ccc(F)cc2)c1C(=O)O,0.942
9,O=C(O)c1cnn(-c2nc(-c3ccc(Cl)c(Cl)c3)cs2)c1C(F)(F)F,2.76
10,CCCC1S/C(=N/N=C/c2ccc(C)cc2)N(Cc2ccc(OC)cc2)C1=O (centres unmarked),12.6
11,CCC(=O)Nc1nc(C)c(C(=O)Nc2cccc(Cl)c2)s1,9.35
12,COc1ccc(N(CC(=O)Nc2cccnc2)S(=O)(=O)c2ccccc2)cc1OC,5.64
13,COc1ccc(S(=O)(=O)N2CCOC23CCN(S(=O)(=O)c2cc(C)ccc2C)CC3)cc1,4.96
14,CCn1cc(C(=O)NCC2CCCO2)c(=O)c2cc(S(=O)(=O)N(C)C3CCCCC3)ccc21 (centres unmarked),-6.71
15,CN(CC(=O)N1CCc2ccccc21)S(=O)(=O)c1cccc2cccnc12,0.0796
16,COc1ccc(C2C(C#N)=C(N)Oc3c2oc(CO)cc3=O)cc1 (centres unmarked),3.37
17,C=CCn1c(P(C)(=O)[O-])nc2ccccc21.[K+],13.7
18,CC1(C)CSC(=NCc2ccccc2)N1,15
19,COc1ccccc1-c1nc(SCc2ccccn2)n[nH]1,-0.379
20,CC[C@H](C)[C@H](NC(N)=O)C(=O)Nc1ccc(NC(C)=O)cc1,12.1
